Measurements: the RNAGym collection of RNA variant scans (doi:10.7554/elife.90254)
The source gives no read counts; variants with many changes may rest on few reads.

B1: LINE1-mini (parent)
chain: GGCAGAGCUCAACACAGCGUGGCAAAGUGGCUGUGGCUAGACUGCC

Variants of: B1
Assay: self-cleavage, relative activity (ratio to wild type); higher = more cleavage; in vitro, sequencing; the parent is a self-cleaving ribozyme
With G7A A11G A25U G33C the self-cleavage was 0.02.
In the case of G5C A14U G35C, the self-cleavage is reported as 0.05.
For G22U C23G U32C C37A, the self-cleavage was 0.1.
In the case of C13U C15U G19C A26U G40C, the self-cleavage is reported as 0.04.
For A11G G35U G36U, the self-cleavage was 0.02.
For C18G C23A G36C G44C, the self-cleavage was 0.01.
Variant A16C C37A G40C has a self-cleavage of 0.03.
Work on G1A G17A G33A C42U yielded a self-cleavage of 0.05.
G5A A11U A12U C15G G17C G36C gave a self-cleavage of 0.01.
Variant C18A G19C G22U U34C has a self-cleavage of 0.06.
Variant C8G A26U C31U U43G C46A has a self-cleavage of 0.05.
With C10A C15A C18G G19C G29U A39C the self-cleavage was 0.02.
Variant G2A G22U U38C has a self-cleavage of 0.32.
With A4U A25G G35U G36A the self-cleavage was 0.12.
With G7C C31U C42A C45G the self-cleavage was 0.02.
C15A G17C G27U G29C showed a self-cleavage of 0.43.
Work on A12G C18U G21U U43G C46A yielded a self-cleavage of 0.01.
For G7A G40C U43C C45A, the self-cleavage was 0.05.
For C3U C18A U32C C42G, the self-cleavage was 0.06.
Variant G1C C10G A14G C15A G19U C37A has a self-cleavage of 0.
G2C C15A U34G showed a self-cleavage of 0.01.
G1C A11C C31A A41C showed a self-cleavage of 0.01.
Variant G5C C18U G21C has a self-cleavage of 0.03.
With G2A C18A G22C A24C U28A the self-cleavage was 0.09.
With U20A A25C U28G A39G G44C the self-cleavage was 0.03.
For G2U G7C A12G C31G, the self-cleavage was 0.08.
Variant C3U U32C G40C has a self-cleavage of 0.08.
In the case of G19C C31U G35U C37A, the self-cleavage is reported as 0.05.
In the case of C13U C18G U32C G44C, the self-cleavage is reported as 0.05.
C3A A24G A26U G33C U34C U38G C45U gave a self-cleavage of 0.04.
Variant G2U C10A C42U has a self-cleavage of 0.01.
With A11C C18A G19U C31G U38C the self-cleavage was 0.02.
With G2C C8U A24U G33U the self-cleavage was 0.03.
A11U A16U A26C G40U gave a self-cleavage of 0.
In the case of C3G G21C G22C U28C G35U, the self-cleavage is reported as 0.04.
For G1U G7C C8U C23U, the self-cleavage was 0.02.
Variant U9G G22A U28A G29A has a self-cleavage of 0.03.
With A6C A14U U32A G35U C42A U43G the self-cleavage was 0.03.
G1U G22U G27A C31A G36U A39G A41C gave a self-cleavage of 0.01.
Variant C23G A24G U34C A41U has a self-cleavage of 0.08.
Variant G17U G35U U43G G44C has a self-cleavage of 0.01.
Variant A14G G22U G29C C31U C42A C46A has a self-cleavage of 0.03.
In the case of A4G U34G G44A, the self-cleavage is reported as 0.01.
For G7U U9A G19C A25U, the self-cleavage was 0.02.
U9A G35U U43G G44U showed a self-cleavage of 0.03.
With G27A C37A C46G the self-cleavage was 0.12.
In the case of C3G A6C A25U G29U C46G, the self-cleavage is reported as 0.29.
U9A C15U A39C showed a self-cleavage of 0.19.
Variant C13G A14C G33U has a self-cleavage of 0.01.
Variant C3G C8U C15A C45G C46A has a self-cleavage of 0.68.
Variant G1C G17U G35C has a self-cleavage of 0.
In the case of G30U U34C G36C G44C C46U, the self-cleavage is reported as 0.05.
G5A G36U A41G gave a self-cleavage of 0.07.
Work on G2A C18U A24U U34G G40C yielded a self-cleavage of 0.01.
Work on A12U G22C C45G yielded a self-cleavage of 0.09.
For C3A U38C A39C, the self-cleavage was 0.38.
In the case of A24U G29U C37U G44U, the self-cleavage is reported as 0.
For G2U C8A A41G, the self-cleavage was 0.06.
With G29U G36C G40A the self-cleavage was 0.11.
In the case of A4U A14C A39U, the self-cleavage is reported as 0.16.
In the case of U9C C31U U38C, the self-cleavage is reported as 0.01.
G17C A24U U32A G35U showed a self-cleavage of 0.15.
With G5C U9A C10G G21C C23U C37A the self-cleavage was 0.02.
U9A A11C G44C C45U showed a self-cleavage of 0.
Work on G2C U9A C10U yielded a self-cleavage of 0.
U20A U32A U38G C42A showed a self-cleavage of 0.01.
Variant A11G G29A G33C C45A has a self-cleavage of 0.
A12G A16C G21U G30A C42U showed a self-cleavage of 0.1.
G17C G22U C42A gave a self-cleavage of 0.08.
For U28G G35A G44U, the self-cleavage was 0.08.
For G22A C31A U34A G40C, the self-cleavage was 0.01.
With G22A C23A U28C the self-cleavage was 0.33.
With G2C A25U U28C U38G C45G the self-cleavage was 0.
For U9A U32C G36C, the self-cleavage was 0.08.
For C3U G21A A25G, the self-cleavage was 0.99.
In the case of C3G A6G C10U, the self-cleavage is reported as 0.03.
Variant C3U U28C C45A has a self-cleavage of 0.09.
Work on A6C C15A A25U G36C yielded a self-cleavage of 0.
Variant U9A C13U C15A G40U has a self-cleavage of 0.08.
Variant U9A G17U A25G G30U has a self-cleavage of 0.02.
G27C G30U A39C gave a self-cleavage of 0.07.
Work on U32G G40C C46U yielded a self-cleavage of 0.03.
Work on C10A C13U A25C G40U yielded a self-cleavage of 0.01.
With C3A U9A C18U A24C A25U U34G C45A the self-cleavage was 0.57.
A11G U28C G44U gave a self-cleavage of 0.02.
C8U U9G C31A G33U showed a self-cleavage of 0.09.
A6G U38C C46G showed a self-cleavage of 0.04.
G5C G7A G29U C31U showed a self-cleavage of 0.04.
Variant C8G G22C A24C has a self-cleavage of 0.07.
With C3A A24G A39U the self-cleavage was 0.18.
In the case of G2A A6G G22A G44A, the self-cleavage is reported as 0.27.
Work on G2C U32G U34G yielded a self-cleavage of 0.3.
In the case of A6U A12G U28C, the self-cleavage is reported as 0.02.
Variant C3U C10U C13G C31U G40U has a self-cleavage of 0.01.
C8U U9A U20C G21U showed a self-cleavage of 0.03.
For C8U C10A G19A C23U G27C U32C, the self-cleavage was 0.02.
Variant A6C C13U C31U U32A has a self-cleavage of 0.01.
With G2A A11U C23A G27A G35A G36U C45A the self-cleavage was 0.03.
With C8U A16U A26U A39G the self-cleavage was 0.05.
Work on G7A C10A C23A C42U yielded a self-cleavage of 0.
Variant A12G G29U G40A C45U has a self-cleavage of 0.04.
A16C A26U G36A showed a self-cleavage of 0.14.
Variant U38G C42A C45A has a self-cleavage of 0.02.
In the case of A16G G17U G22C A24U A41G, the self-cleavage is reported as 0.03.
In the case of A12C C18G A25U C46G, the self-cleavage is reported as 0.02.
For G21C C37U G40U C45U C46U, the self-cleavage was 0.02.
Variant G2U C8G G36U has a self-cleavage of 0.05.
For C13G C15A G21A A25G G30A C45U, the self-cleavage was 0.03.
G5C U38C A39G C45A showed a self-cleavage of 0.03.
Variant A6U A14G U34A has a self-cleavage of 0.21.
Variant A4G C8G A11G has a self-cleavage of 0.
In the case of A12U G17A U28G, the self-cleavage is reported as 0.01.
For G21C G36A G40A, the self-cleavage was 0.44.
G2A C10U A12C G35U gave a self-cleavage of 0.01.
With C8A A14G C18G the self-cleavage was 0.05.
For A12C G27A U28A, the self-cleavage was 0.01.
A6G C10G C13G G27A G29C showed a self-cleavage of 0.02.
Work on C3A A4G A6U G17A G19C U20A C31U yielded a self-cleavage of 0.04.
With U9A C10U C18A the self-cleavage was 0.14.
Work on C3G A14U G22U yielded a self-cleavage of 0.37.
In the case of C3A A12G G21U, the self-cleavage is reported as 0.51.
For G7U A14C G19C, the self-cleavage was 0.03.
With A6U C10U A16C G22U the self-cleavage was 0.09.
A4C C15U A16U showed a self-cleavage of 0.02.
U9A C10U C31U U34C gave a self-cleavage of 0.02.
C8G C10U A11U gave a self-cleavage of 0.01.
G1A C23G U34C G35C C37A gave a self-cleavage of 0.02.
C3A A12U C13U A14U G29C G33U C42G showed a self-cleavage of 0.07.
Variant C3G A14C C18G G36C C45U has a self-cleavage of 0.04.
For C3U G5A C8G A25C G27C, the self-cleavage was 0.01.
In the case of C15A G30C C46A, the self-cleavage is reported as 0.03.
Work on G5U U20C G22U A25C yielded a self-cleavage of 0.05.
With A6G G7A G27C the self-cleavage was 0.12.
For A4G A6C A25G A26U, the self-cleavage was 0.01.
With A4G A6G U9C the self-cleavage was 0.04.
A16G U20C G21C G27A showed a self-cleavage of 0.3.
G5C C10A A26U G27C gave a self-cleavage of 0.02.
A12U A14C U28C showed a self-cleavage of 0.02.
G5U A11U C31G showed a self-cleavage of 0.02.
Variant A4G A11C A14U G22C has a self-cleavage of 0.02.
For G5U U32G U43C, the self-cleavage was 0.04.
Work on G1A A25C A26G G36U C42G yielded a self-cleavage of 0.04.
Work on A11U G22U G44A yielded a self-cleavage of 0.03.
G2U A6G U20G G33U showed a self-cleavage of 0.01.
In the case of U9A G17C G19A U28A A39C, the self-cleavage is reported as 0.28.
G30U A39U U43G C46G gave a self-cleavage of 1.4.
In the case of C3G G5U G27A C45A, the self-cleavage is reported as 0.11.
With A6C C10A U20A G35A the self-cleavage was 0.07.
Work on G7C U9C A11U A14G G19U G30C U34G G40A C42U yielded a self-cleavage of 0.
A6U A25U A39U gave a self-cleavage of 0.12.
With G1U C10U G40U the self-cleavage was 0.01.
Variant C3U G17U G40U G44U has a self-cleavage of 0.02.
Work on A6G A24U A25G yielded a self-cleavage of 0.05.
For C8A U20A G21A G22C U28C G29U C37A, the self-cleavage was 0.01.
A11U A25C G36C gave a self-cleavage of 0.02.
In the case of C3U U43C C45U, the self-cleavage is reported as 0.1.
Work on C13U C18A G29U G30U G36A yielded a self-cleavage of 0.16.
In the case of U20A G21C G29U, the self-cleavage is reported as 0.32.
With G2C A14G G27A U38G A39C G44U the self-cleavage was 0.07.
With G1C U9A C18A G21C the self-cleavage was 0.04.
With C8G U34G C46U the self-cleavage was 0.02.
For C18A G19C G30C, the self-cleavage was 1.15.
In the case of G2U U9A C10A, the self-cleavage is reported as 0.
In the case of G29U U34A C42U, the self-cleavage is reported as 0.05.
For C13U G17A A41G, the self-cleavage was 0.26.
For A11C C18A G44U, the self-cleavage was 0.03.
G5U G7C G17A showed a self-cleavage of 0.03.
